About 230 (0.21%) of roughly 110,000 compounds showed an effect of 50% or more. This is one part of the list.
biological target: DPAP1 (Plasmodium falciparum, UniProt Q8IIJ9); assay: primary screen, percent inhibition; read by cleavage of a fluorogenic dipeptide substrate; higher = more effect of the substance; parameters: species or system P. falciparum D10 trophozoite lysates; single well
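Note: 30 min substrate incubation versus DMSO and 10 µM JCP410 controls.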

Chain of DPAP1 (Q8IIJ9 whole entry, looked up): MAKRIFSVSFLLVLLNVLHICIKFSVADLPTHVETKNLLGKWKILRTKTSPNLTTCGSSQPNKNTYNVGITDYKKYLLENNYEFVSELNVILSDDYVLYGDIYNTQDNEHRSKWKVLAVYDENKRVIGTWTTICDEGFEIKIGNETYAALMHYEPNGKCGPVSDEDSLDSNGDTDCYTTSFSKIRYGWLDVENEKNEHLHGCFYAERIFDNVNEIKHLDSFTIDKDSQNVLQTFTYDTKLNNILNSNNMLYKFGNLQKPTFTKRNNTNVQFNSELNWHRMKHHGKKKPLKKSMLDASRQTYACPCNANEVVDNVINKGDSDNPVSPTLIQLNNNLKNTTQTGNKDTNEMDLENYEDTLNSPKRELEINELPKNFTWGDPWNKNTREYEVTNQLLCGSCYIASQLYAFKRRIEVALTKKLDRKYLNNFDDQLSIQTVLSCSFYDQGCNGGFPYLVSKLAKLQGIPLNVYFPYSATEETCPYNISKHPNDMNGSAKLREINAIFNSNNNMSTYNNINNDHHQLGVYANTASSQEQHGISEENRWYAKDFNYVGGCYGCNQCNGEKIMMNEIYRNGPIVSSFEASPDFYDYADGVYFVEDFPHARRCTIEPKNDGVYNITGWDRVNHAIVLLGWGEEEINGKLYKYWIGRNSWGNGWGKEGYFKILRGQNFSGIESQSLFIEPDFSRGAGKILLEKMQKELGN

Row | SMILES | % Inhibition @ 10 uM
1 | COc1ccccc1CC(C)NCCC1CCCN1C (stereo not shown) | -3.8%
2 | CC1CC2=C(CC1CNCCCN(C)C)C(C)(C)CCC2 (stereo not shown) | -0.13%
3 | CC(C)n1c(C(O)c2cccc3ccccc23)nc2ccccc21 (stereo not shown) | -2.27%
4 | CC1CCN(S(=O)(=O)c2ccc(NC(=O)C3c4ccccc4Oc4ccccc43)cc2)CC1 | -4.6%
5 | CCC(C)NC(=O)CN(c1cc(C)ccc1OC)S(=O)(=O)c1ccccc1 (stereo not shown) | -3.37%
6 | CCOC(=O)N1CCC(N2C[C@@H]3C[C@H](C2)c2cccc(=O)n2C3)CC1 | 1.54%
7 | CC1(C)CC(=O)C2=C(C1)OC(N)=C(C#N)C2c1ccc(COc2cccc(Br)c2)o1 (stereo not shown) | 4.75%
8 | COc1ccc(CCNC(=O)CC2Sc3ccc(C(F)(F)F)cc3NC2=O)cc1OC (stereo not shown) | 3.5%
9 | CCN(CC)CCNC(=O)Cn1ccc2ccccc2c1=O | 1.91%
10 | O=C(COc1ccc(Cl)cc1Cl)N1CCOCC1 | -0.999%
11 | Cc1ccc(C(=O)Nc2ccc(S(=O)(=O)NC(C)C)cc2)cc1Br | 5.07%
12 | CC1(C)CC2=Nc3ccccc3SC2=C(O)C1 | -11.6%
13 | CCCCOc1ccc(C2NC(=O)NC(C)=C2C(C)=O)cc1OCC (stereo not shown) | -0.968%
14 | CC1CCc2c(sc(NC(=O)COc3ccccc3)c2C(N)=O)C1 (stereo not shown) | 9.91%
15 | O=C(c1ccc2c(c1)OCO2)c1cc2ccc(O)cc2oc1=O | 0.44%
16 | CCOC(=O)C1=C(N)OC2=C(C(=O)CCC2)C1c1cccs1 (stereo not shown) | -8.44%
17 | C#CCOc1nc2c(c(=O)n(Cc3ccc(Cl)c(Cl)c3)c(=O)n2C)n1C | 0.0645%
18 | CC(C)(C)OC(=O)N1CCN(C(=O)c2sc3cc(Cl)ccc3c2Cl)CC1 | 2.68%
19 | O=C1OC(c2ccc(Cl)cc2Cl)=N/C1=C\c1cccs1 | -5.79%
20 | Cc1ccc2nc3c(O)n(CC(=O)N4CCOCC4)ncc-3c2c1 | -5.75%
21 | O=C(NC1CCCc2ccccc21)c1ccc(CS(=O)(=O)c2ccc(Br)cc2)o1 (stereo not shown) | -4.53%
22 | CCOc1ccc2nc(N3CCC(C(=O)NCCC4=CCCCC4)CC3)sc2c1 | 3.4%
23 | N#C/C(=C\c1ccc(SCc2ccc(Cl)cc2)o1)C(=O)NCc1ccco1 | -0.0115%
24 | CC(=O)Nc1ccc(N2C(=O)C(O)=C(C(=O)c3ccc(Cl)cc3)C2c2ccc(F)cc2)cc1 (stereo not shown) | -3.43%
25 | Cc1ccc2c(c1)C1(C(=O)N2)N2CC3(C)CN1CC(C)(C2)C3=O (stereo not shown) | -1.42%

Row | SMILES | % Inhibition @ 10 uM
26 | Cc1cc(/C=C2/C(=N)N3C(=NC2=O)SN=C3S(C)(=O)=O)c(C)n1-c1cccc2ccccc12 | 3.48%
27 | Cc1ccc(/C(O)=C/c2nc3ccccc3nc2O)cc1C | 0.738%
28 | COc1ccc2[nH]c3c(c2c1)CCc1nonc1-3 | -4.68%
29 | CCOc1ccc2nc(NC(=O)C3CCCCC3)sc2c1 | -3.34%
30 | COc1ccc(Cn2c(C(=O)O)c(CNCCc3ccccc3Cl)c3ccccc32)cc1 | 1.17%
31 | COCCCN1Cc2cccc(C(N)=O)c2C1=O | 0.708%
32 | Cc1ccc(Cn2c3ccccc3c3cnn(CC(=O)NCc4ccccc4)c(=O)c32)cc1 | -3.34%
33 | Cc1cccc(C)c1OCc1nc2c3cnn(-c4nc5ccccc5s4)c3ncn2n1 | -4.64%
34 | CC(=O)c1cccc(NC(=O)COc2ccc(Cl)cc2C)c1 | 4.22%
35 | COc1cc(C2Oc3c(OC)cccc3C3CC(c4cc(Cl)ccc4O)=NN32)ccc1O (stereo not shown) | 1.76%
36 | Cc1ccc2nc(-c3ccc(N)cc3)sc2c1S(=O)(=O)O | 0.847%
37 | O=C(NC1CC1)c1ccc(CSCc2ccccc2Cl)o1 | -4.97%
38 | CCOC(=O)c1cnc(-c2ccccc2)nc1N | -3.94%
39 | Cc1ccc(NC(=O)CN(c2cc(Cl)ccc2C)S(C)(=O)=O)c(C)c1 | -1.61%
40 | Cc1c(Cl)cccc1NC(=O)C(c1ccccc1)c1ccccc1 | 7.65%
41 | COc1ccc(-n2nc(C)c3c2OC(N)=C(C#N)C3c2ccc(C)cc2)cc1 (stereo not shown) | 2.45%
42 | CCOc1ccccc1CNC(=O)Cn1nc(C)n2c(cc3cc(F)ccc32)c1=O | -1.7%
43 | Cc1ccn2c(NC(=O)c3ccc4c(c3)OCO4)c(-c3ccccc3)nc2c1 | -3.48%
44 | COc1ccc(CCN2C(=O)c3ccccc3C2(O)Cc2ccccc2)cc1OC (stereo not shown) | -2.87%
45 | Cc1ccc(C2C(C#N)=C(N)N(c3cccnc3)C3=C2C(=O)CC(c2ccccc2)C3)cc1 (stereo not shown) | 6.19%
46 | CCc1ccc(S(=O)(=O)c2nnn(-c3ccccc3C(F)(F)F)c2N)cc1 | 0.351%
47 | OC1CCN(c2ccc3ccccc3n2)CC1 | -6.22%
48 | COc1ccc(C(=O)Nc2ccc(NC(=O)c3ccco3)c(Cl)c2)cc1Br | 10%
49 | CCCOC(=O)C1=C(C)NC(=O)NC1c1cccc(Cl)c1Cl (stereo not shown) | -3.14%
50 | CN1CCN(C(=O)c2ccc(F)cc2)CC1 | -0.268%

Row | SMILES | % Inhibition @ 10 uM
51 | Clc1ccc(Cl)c(SCCc2ccccn2)c1 | 2.57%
52 | CC(=O)c1c(C)[nH]c(C(=O)NCCc2cccc(C)c2)c1C | -6.06%
53 | CC1=Nc2ncnn2C(c2ccc(OC(F)F)cc2)/C1=C(\O)OC1CCCCC1 (stereo not shown) | 4.23%
54 | CCN(CCO)Cc1csc2ccc(Cl)cc12 | -0.854%
55 | CC(NC(=O)c1ccc(Br)o1)c1ccccc1 (stereo not shown) | -3.82%
56 | C=CCOc1ccc(/C=C2/NC(=O)NC2=O)cc1 | 3.15%
57 | CC1(C)CC(=O)C(C(O)c2ccccc2)C(C)(C)N1 (stereo not shown) | -4.01%
58 | O=C(Cn1ncc2c1-c1ccccc1OC2)NCCCN1CCC(Cc2ccccc2)CC1 | 4.41%
59 | COc1ccc(-c2noc(N3CCC(C(=O)NCc4ccc5c(c4)OCO5)CC3)n2)cc1 | -3.42%
60 | COc1ccc(C2CC(=O)C(/C=N/CCN3CCNCC3)=C(O)C2)cc1 (stereo not shown) | 0.673%
61 | Cc1ccc(S(=O)(=O)NC(C)C(=O)NCc2ccccc2Cl)cc1 (stereo not shown) | -5.21%
62 | CCCCN(C)C(=O)C(C)n1nc(CC)n2c(cc3occc32)c1=O (stereo not shown) | 1.38%
63 | CSC1=C(C#N)C(c2ccc(Cl)cc2)C2=C(O)CC(C)(C)CC2=N1 (stereo not shown) | 5.42%
64 | O=C(COc1cc(Cl)ccc1Cl)NCc1ccco1 | -6.06%
65 | CC(C)Oc1c(-c2ccc(F)cc2)c(=O)c1=O | -1.22%
66 | COc1cc(N2C(=O)c3ccccc3C2=O)nc(OC)n1 | 3.61%
67 | Cc1c2cnn(CC(=O)N3CCC4(CC3)OCCO4)c(=O)c2c(C)n1Cc1ccccc1 | -2.17%
68 | Cc1ccc(C)c(OCC(=O)Nc2ccc(S(=O)(=O)Nc3cc(C)on3)cc2)c1 | 40.8%
69 | C=C1CC(C)OC(c2ccccc2O)C1 (stereo not shown) | -8.14%
70 | O=C(Nc1ccc(Cl)cc1C(=O)N1CCN(CCO)CC1)c1ccco1 | 3.81%
71 | COc1ccccc1CNCc1c(C(=O)O)c(C)n(Cc2c(F)cccc2Cl)c1C | -3.67%
72 | CC1CCCC(C)N1CCNC(=O)C1CCN(S(=O)(=O)N2CCC3(CC2)OCCO3)CC1 (stereo not shown) | 2.18%
73 | CC(C)CCN1CC(C(=O)NCc2cccnc2)CC1=O (stereo not shown) | -3.58%
74 | CCCN1CCC(NCc2cccc(F)c2)CC1 | -3.8%
75 | CC1CCCCC1NC(=O)C1CCCN(S(=O)(=O)c2c[nH]cn2)C1 (stereo not shown) | 2.93%

Row | SMILES | % Inhibition @ 10 uM
76 | Cc1cc(C)n2cc(COc3ccc(Cl)cc3C)nc2n1 | -7.45%
77 | COCCCNC(=O)CSc1nc(NCCc2ccccc2)c2ccccc2n1 | 1.24%
78 | CCOc1ccc2nc(NC(=O)c3ccc([N+](=O)[O-])c(C)c3)sc2c1 | 4.6%
79 | CCC(Sc1nc(=O)cc(N)n1CCc1ccccc1)C(=O)Nc1nc(-c2ccccc2)cs1 (stereo not shown) | 0.9%
80 | Cc1ccc(-c2noc(CN(C(=O)C(C)(C)C)C(C)C)n2)cc1 | -4.31%
81 | Cc1cc(=O)oc2c(CN(CCO)CCO)c(O)c(O)cc12 | -2.77%
82 | CN1C(=O)/C(=C2/C(=O)Nc3ccc(Br)cc32)S/C1=N/c1ccc(Cl)cc1 | -3.87%
83 | CCOC(=O)N1CCN(C(=O)C2CCCN(S(C)(=O)=O)C2)CC1 (stereo not shown) | -2.99%
84 | COc1ccc(/N=C/c2c(N)nn(-c3ccccc3)c2O)cc1 | -2.8%
85 | CC(=O)N(c1ccc2oc3c(c2c1)CCCC3)S(=O)(=O)c1ccc(F)cc1 | 6.68%
86 | Clc1ccc(Cl)c(OCCCCN2CCCCC2)c1 | -2.48%
87 | Cc1cccc(OCC(=O)Nc2ccc(CC#N)cc2)c1 | 0.231%
88 | O=[N+]([O-])c1cc(CN2CCN(c3cccc(C(F)(F)F)c3)CC2)ccc1Cl | 4.66%
89 | Cc1nc(SCC(C)C)c(C#N)c(C)c1C | -0.99%
90 | N#CC1=C(N)Oc2[nH]nc(-c3cccs3)c2C1c1ccc(Br)s1 (stereo not shown) | 3.92%
91 | Cc1nc2nc(N)nn2c(O)c1C | 1%
92 | CC1CCC(NC(=O)CCc2nnc3n(CCc4ccccc4)c(=O)c4ccccc4n23)CC1 (stereo not shown) | 2.6%
93 | COCc1cc(C)nc(Nc2ccccc2C)c1C#N | 4.68%
94 | COc1ccc(-c2noc(CSCC(=O)NCCCN(C)Cc3ccccc3)n2)cc1OC | -6.37%
95 | Cc1cccn2c(=O)c(/C=C(\C#N)C(=O)NC3CCCCC3)c(Oc3ccccc3)nc12 | -3.23%
96 | O=C(NCCc1ccc(Cl)cc1)C1CCN(c2nnc(N3CCCC3=O)s2)CC1 | 3.67%
97 | O=C(c1ccccc1)N1CCN(C2CCN(Cc3ccccc3)CC2)CC1 | -3.09%
98 | OCCNCc1ccccc1OCc1ccc(F)cc1 | 1.64%
99 | Cc1ccc(/C=C/C2=CC(C)(C)NC(S)=N2)cc1 | -7.21%
100 | CC1CCc2c(C(=O)NCC3CCCO3)csc2C1 (stereo not shown) | -3.21%

— publication PMC6919601, “Identification of Plasmodium dipeptidyl aminopeptidase allosteric inhibitors by high throughput screening” (PLoS ONE, 2019)
